# Data: PubChem BioAssay (NCI)
# Where “and” joins values, the source holds several entries; their conditions need not be identical. Equal values may be shown once.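 Interpolation was linear, between the two tested concentrations surrounding the appropriate level; five concentrations were tested over 48 hours in 96-well plates. Here, GI50 denotes the concentration required for 50% inhibition of growth. TGI: concentration producing complete growth inhibition.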
# System: NCI-H322M lung
# Assay: DTP human tumour cell line panel, 48 h
Compound,GI50,TGI
COc1ccc2cc(-c3c(-c4ccncc4)nc(-c4ccc(S(C)=O)cc4)n3C)ccc2c1 (configuration not stated),> 25 µM,> 25 µM
CCOC(=O)CSc1nnc(C(Sc2nc(-c3ccccc3)c(-c3ccccc3)[nH]2)C(C)C)n1-c1ccccc1 (configuration not stated),–,23.9 µM
O=C(O)CNC(=O)c1c2ccccc2nc2ccccc12,–,> 100 µM
Nc1ccc(CCN2CCN(CCCc3ccccc3)CC2)cc1,–,> 100 µM
CN(C)c1ccc(N=Nc2ccncc2)cc1,–,> 100 µM
Cn1cncc1CC1COC(=O)C1C(O)c1ccccc1 (configuration not stated),–,> 100 µM
COc1ccc(OC)c(C2SCC(=O)N2NC(=O)C(O)c2ccccc2)c1 (configuration not stated),> 100 µM,> 100 µM
N/N=C1\CC(=O)NC(=O)N1,–,> 100 µM
CC1(C)N=C(N)N=C(N)N1c1ccc(CCCCc2ccc(S(=O)(=O)F)cc2)c(Cl)c1,0.709 µM,20.8 µM
Cc1cccc(NC(=O)c2sc3nc4c(cc3c2N)CN(Cc2ccccc2)CC4)c1C,0.3 µM,> 50 µM
CN(CCCCCl)P(=O)(OCCS(=O)(=O)CC(NC(=O)CCC(N)C(=O)O)C(=O)NC(C(=O)O)c1ccccc1)OCC1OC(n2cc(F)c(=O)[nH]c2=O)CC1O (configuration not stated),4.66 µM,> 73.6 µM
CN1CCN(CC(O)COc2c(Br)c(Br)c(Br)c3c2OC(C)(C)C3)CC1 (configuration not stated),16.6 µM,35.3 µM
CC(C)(C)c1ccc(C(=O)Nc2sc3c(c2C(N)=O)CCC(=O)C3)cc1,2.77 µM,16.8 µM
CC(C)=CCC/C(C)=C/CC/C(C)=C/CC/C=C(\C)CC/C=C(\C)CCC(=O)Nc1ccn(C2OC(CO)C(O)C2(F)F)c(=O)n1 (configuration not stated),0.103 µM,6.6 µM
CCC[C@H](C)C[C@H](C)C[C@H](C)/C=C(\C)[C@@H](O)[C@@H](C)C(=O)CC,–,37.5 µM
N#CN1CC[C@H](C(=O)Nc2ncc(-c3ccncc3)s2)C1,0.0863 µM,26.3 µM
COc1ccc(/C=C2\CN(C)C/C(=C\c3ccc(OC)c(OC)c3OC)C2=O)c(OC)c1OC,–,0.677 µM
C/C1=C\[C@@H](O)C(=O)/C=C/C=C\c2csc(n2)[C@@H](C)NC(=O)C[C@@]2(CC1)S(=O)SC(=O)[C@]2(C)O (some centres not stated),0.109 µM,0.596 µM and 2.51 µM
CSCCC(NC(=O)Cc1ccc(C(=O)c2ccccc2)cc1)C(=O)O (configuration not stated),–,> 100 µM
CC1=NN(C(=O)CSc2nc3ccc(I)cc3c(=O)n2Cc2ccccc2)C(=O)C1,–,> 100 µM
FC(F)(F)c1ccc2nc(Sc3ccccn3)cnc2c1,–,> 100 µM
CC(C)[C@@H]1ON1C(C)c1ccccc1 (some centres not stated),–,> 100 µM
O=C(N/N=C/c1cc(Cl)cc(Cl)c1O)c1ccccc1O,2.25 µM,28.8 µM
COc1ccc(/C=N/NC(=O)Cn2c(-c3ccc(S(C)(=O)=O)cc3)nc3cc(Cl)ccc32)cc1,2.8 µM,> 50 µM

Compound,GI50,TGI
CC(=O)Oc1ccccc1C(=O)/C=C/c1cccc([N+](=O)[O-])c1,11.8 µM,26.1 µM
Cc1n[nH]c(=O)n1/N=C/c1ccc([N+](=O)[O-])o1,–,> 72.7 µM
Cc1cc(NCCCCCCCNc2cc(C)nc3cc([N+](=O)[O-])ccc23)c2ccc([N+](=O)[O-])cc2n1,–,25.9 µM
CCC(c1c[nH]c2ccc(Br)cc12)c1c[nH]c2ccc(Br)cc12,–,18.1 µM
COc1ccc(-c2cc(=O)c3c(OC)c(OC)c(OC)c(OC)c3o2)cc1,–,> 100 µM
CCN(CC)Cc1sc2nc3ccccc3n2c1-c1ccc(OC)cc1,–,> 100 µM
COC(CN1C=C(Sc2ccccc2)CC1)OC,–,> 100 µM
CC1(C)OC2C(=O)C=C(COCc3ccccc3)C2O1 (configuration not stated),–,> 100 µM
CCOc1ccc(-n2nnc3c(N)nc(N)nc32)cc1,–,> 100 µM
COc1ccc2oc(=N)c(C(=O)Nc3ccccn3)cc2c1,–,> 100 µM
Cc1nc2ccccc2c(/C=C/c2ccc(Br)cc2)c1C(=O)/C=C/c1ccccc1,1.59 µM,3.2 µM
BrCc1ccc(CBr)cc1,1.03 µM,11.8 µM
Cc1ccc(C2=Nc3ccccc3SC(c3cccc([N+](=O)[O-])c3)C2)cc1 (configuration not stated),–,> 100 µM
CCCCn1c(=O)c2c(nc3n2CCCN3CCc2ccc(OCC(=O)NCCN(CC)CC)cc2)n(CCCC)c1=O,5.41 µM,13.4 µM
CCN(CCO)CC(C)Nc1ccc([N+](=O)[O-])c2sc3ccccc3c(=O)c12 (configuration not stated),1.12 µM,3.54 µM
COC1O[C@@H]2C[C@H]3C(C)(C)CCC[C@]3(C)C3=CCCC1[C@@]32C (some centres not stated),> 100 µM,> 100 µM
CCOC(=O)C(=O)Nc1cc(Cl)ccc1Cl,–,> 100 µM
COc1cc(/C=C(/C#N)C(N)=O)ccc1O,–,> 100 µM
O=C(Nc1cccc(F)c1)c1cc2ccc(O)cc2oc1=Nc1ccccc1F,–,8.18 µM
CC[C@@H](/C=C\CCC(=O)C[C@H](O)CCC=C(C)C)O[Si](C(C)C)(C(C)C)C(C)C,–,> 100 µM
Cc1ccc(N=Nc2c(O)c(C(=O)Nc3ccccc3)cc3ccccc23)c([N+](=O)[O-])c1,–,> 100 µM
Nc1ccc(C(=O)NN2C(=O)C(Cl)C2c2ccccc2)cc1 (configuration not stated),–,> 100 µM
CCC1(O)C(=O)OCc2c1cc1n(c2=O)Cc2cc3cc(N)ccc3nc2-1 (configuration not stated),–,3.97 µM
O[C@H]1[C@H](O)[C@@H](O)[C@@]2(O)C[C@@H](O)[C@@H]1N2,–,> 100 µM

Compound,GI50,TGI
COC(=O)c1c(OC(C)=O)ccc2c1c1c(OC(C)=O)c3ccccc3c(OC(C)=O)c1n2Cc1ccccc1,–,27.3 µM
COC(=O)c1c(O)ccc2c1C1(Cc3ccccc3C1=O)C(O)O2 (configuration not stated),–,> 100 µM
CCNC1=C(NC(=O)CC)C(=O)c2ccccc2C1=O,–,> 100 µM
CCOC1=C2N=C(Cc3ccccc3F)N=C2C(=O)c2ccccc21,–,> 100 µM
COC(=O)C1=C(C)N2[C@H](C(=O)O)CO[C@@]2(C)[C@H](C(=O)OC)[C@H]1c1cccc([N+](=O)[O-])c1,–,> 100 µM
Cc1nc(-c2ccc(N=Cc3ccc(N(CCOS(C)(=O)=O)CCOS(C)(=O)=O)cc3C)cc2)cs1,–,> 100 µM
O=C(CC(=O)Nc1ccccc1)N/N=C/c1cc(N=Nc2ccc(Br)cc2)ccc1O,–,> 10 µM
CC1=CC(=O)C(O)C2(C)C1CC(O)C13COC4(C)C(OC(=O)C41)C(O)C23 (configuration not stated),12.7 µM,46 µM
CCN(Cc1ccc(Cl)s1)c1ccc(CO)c(Cl)c1,6.05 µM,35.1 µM
O=C1C[C@@H](c2ccccc2)O[C@@H](c2ccccc2)C1,–,> 100 µM
CCn1c2ccccc2c2cc(/C=C(/C#N)C(N)=O)ccc21,54.8 µM,> 100 µM
N#Cc1c(N)[nH]c2ccc(Sc3ccccc3)cc12,–,16.8 µM
CNc1ccc(N)cc1C(=O)N1CCC[C@H]1CO,–,> 100 µM
CC(C)CN=C(N)N=C(N)N,–,> 100 µM
COc1ccc(C2[C@@H](Cl)C(=O)N2c2cc(OC)c(OC)c(OC)c2)cc1Cl (some centres not stated),4.47 µM,28.1 µM
CC1(C)OCC(C(O)C2OC(C)(C)OC2/C=N\O)O1 (configuration not stated),–,> 100 µM
O=C1NC(=S)N(c2ccccc2)C1=O,–,> 100 µM
COc1ccc(C(=O)c2[nH]c(Nc3ccc(Cl)cc3)c(C(=S)Nc3ccccc3)c2N)cc1,–,> 100 µM
CN(CC(N)=O)C(=O)N(CCCl)N=O,–,> 100 µM
Cc1ccc(/C(O)=C/C(=O)C(=O)NN=C(c2ccccc2)c2ccccc2)cc1,–,> 100 µM
C#CCOCC12C=CC(O1)C1C(=O)OCC12 (configuration not stated),–,> 100 µM
Cc1ccc(NC(=O)c2ccccc2C(=O)O)cc1C,–,> 100 µM
CCOC(=O)c1ccc(C(=O)C(C(C)=O)C(=O)OC(C)(C)C)[nH]1 (configuration not stated),–,> 100 µM
COC(=O)C1=C(OC(=O)c2ccccc2)C(C(=O)OC)[C@]2(O)[C@@H](C(=O)OC)[C@H]1C[C@@H](c1ccccc1)[C@@H]2C(=O)OC (some centres not stated),–,58 µM

Compound,GI50,TGI
COc1cc(/C=C/[N+](=O)[O-])cc(Br)c1OC,13.5 µM,29.4 µM
C/C=C(\C)c1cc(O)c(C)c2c1Oc1cc(O)c(Cl)c(C)c1C(=O)O2,–,79.6 µM
O=C(NC1CCCC1=O)c1ccccc1 (configuration not stated),–,> 100 µM
CCOC(=O)[C@H](Cc1ccc(O)cc1)N=C1[C@H]2CCC[C@]1(O)[C@@](C)([N+](=O)[O-])C2,–,> 100 µM
Cc1ccc(/C=C2\CCCC(CN3CCCCC3)C2=O)cc1 (configuration not stated),–,29.6 µM
C[C@H]1C=C2[C@@H]3CC(C)(C(=O)O)CC[C@]3(C)CC[C@]2(C)[C@]2(C)CC[C@H]3C(C)(C)[C@@H](OC(=O)c4cccc5c(=O)c6ccccc6[nH]c45)CC[C@]3(C)[C@@H]12 (some centres not stated),–,> 100 µM
COc1cccc(NC(=O)C(C#N)=C(SC)SC)c1,–,> 100 µM
C#CCOc1cccc(Nc2ncnc3c(NC(=O)CCl)cccc23)c1,16.7 µM,35.4 µM
COC(=O)c1cnn2c1n[n+]([O-])c1ccccc12,–,> 100 µM
CN(C)c1ccc(/C=C2\C=Cc3ccccc32)cc1,–,> 100 µM
O=C1NC(=O)C(c2cccc(Cl)c2)=C1Nc1ccc(O)c(Cl)c1,17.8 µM,> 25 µM
[N-]=[N+]=C1C(=O)C2CC3CC(C2)CC1C3,–,> 100 µM
CN1CCC(n2cnc(-c3ccc(F)cc3)c2-c2ccnc(N)n2)CC1,10.9 µM,> 25 µM
Cc1ccc(CC(C)N)cc1 (configuration not stated),–,> 100 µM
CC(C)(C)CN1CCn2c(nc3c(N)nccc32)S1,8.07 µM,> 100 µM
COc1nc(N)c(N=CC(OC(C)=O)C(OC(C)=O)C(COC(C)=O)OC(C)=O)c(=O)n1C (configuration not stated),–,> 100 µM
CC1(O)OC(=O)C2=C1CCC1C2CCC2(C)C(O)CCC12 (configuration not stated),–,> 100 µM
CC(C)(C)OC(=O)NCCC1CN(C(=O)c2ccccc2)c2ccccc21 (configuration not stated),–,> 100 µM
Cc1ccc(S(=O)(=O)NCCSCCSCCNS(=O)(=O)c2ccc(C)cc2)cc1,–,> 100 µM
CNS(=O)(=O)NNS(=O)(=O)c1ccc(Cl)cc1,–,> 100 µM
Nc1nc(Cl)c(N)c(NCC2(CO)CC(CCCc3ccccc3)C2)n1 (configuration not stated),–,> 100 µM
Cc1csc2nc(-c3ccc(Cl)c([N+](=O)[O-])c3)c(/C=N/N=C(N)N)n12,–,3.19 µM
CC(C)C1=CC23CCC4C(C)(C(=O)O)CCCC4(C)C2CC1C1C(=O)N(c2ccc(C(=O)O)cc2)C(=O)C13 (configuration not stated),–,> 100 µM
